Measured values taken from PMC12136788.
The other results are listed elsewhere or left out.

T1: UNK ZnF1-6 (called full-length) (human, UniProt Q9C0B0 30-357)
T1 sequence: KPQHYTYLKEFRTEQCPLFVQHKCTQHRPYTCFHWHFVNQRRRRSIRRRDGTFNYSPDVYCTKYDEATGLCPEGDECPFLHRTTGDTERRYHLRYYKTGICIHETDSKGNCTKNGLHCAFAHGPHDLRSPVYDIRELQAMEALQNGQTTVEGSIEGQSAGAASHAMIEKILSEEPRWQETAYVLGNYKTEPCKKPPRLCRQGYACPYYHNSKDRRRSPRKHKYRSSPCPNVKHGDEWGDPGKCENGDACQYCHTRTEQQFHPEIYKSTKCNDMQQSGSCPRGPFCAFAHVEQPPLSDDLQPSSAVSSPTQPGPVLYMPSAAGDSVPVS

B1: chr11:111494814:111495134:-|three_prime_utr|ENSG00000137707|control|control|control (ssRNA)
RNA: GGGAGUUCUACAGUCCGACGAUCUCUCUAAAAUAAAAAUGAAUUUAAGGUUGAGAGGCCCAUGAAACAAAAAAUGACCAUAUUAGGGACUAGGGUACACAAUGGUAAAUCCUCUCAUACAGAUCAUCACUGUUCUUAGCUGUACAACAGAGGAUUGAGCAUCA
B2: chr3:194587672:194588620:-|three_prime_utr|ENSG00000145014|control|control|control (ssRNA)
RNA: GGGAGUUCUACAGUCCGACGAUCAAGCUGCCCUGGCAAGUGAGGAACCAGGAGCCGUCACUGAGUGUGGCUGGGCUACAUCAUAGCUCAUCACGGAGCUACGACUUUGGGUACUGCGGACAGACCUGGAUAGGCCCAGCAUUCCAACAGAGGAUUGAGCAUCA
B3: chr1:225419324:225419425:-|CDS|ENSG00000143815|msi1|FALSE|unique (ssRNA)
RNA: GGGAGUUCUACAGUCCGACGAUCUUACAUAGCAACACAGUAUAGCCUUCGUCCAAGAAGAGAAGAAGUCAAAUUAAAAGAAAUAGAUUCUAAGGAAGAAAAAUACGUUGCAAAAGAACUGGCAGUGAGAACCUUUGAAGUGACCAACAGAGGAUUGAGCAUCA
B4: chr10:99876058:99876159:-|3pUTR|ENSG00000107554|msi1|FALSE|bound_elsewhere (ssRNA)
RNA: GGGAGUUCUACAGUCCGACGAUCUUGAGCCUAAUGGAAGACUGGAUGUCUUUCUUCUUCAUCCAAGCACCCUAAUGACUGUUUAGUUACAUCCAUAGAUGCAGACAACAUAACACCUGUGACUUACUUGAAUUGGGAUAAGCCCAACAGAGGAUUGAGCAUCA
B5: chr12:51809400:51809501:+|3pUTR|ENSG00000196876|unk|total|mutant (ssRNA)
RNA: GGGAGUUCUACAGUCCGACGAUCCUGCCUUGCAGCCGAAGCACUUUGAAGGUAAUUUCACAGUCCACCAGACCCGUUUUGCACCGAACAAACCACAGUAAGUCGGCAAGCAGAGCUUUCUAUCUUGUUGGACCACCCGAAACUCAACAGAGGAUUGAGCAUCA
B6: chrX:27979534:27981334:-|CDS|ENSG00000226372|control|control|control (ssRNA)
RNA: GGGAGUUCUACAGUCCGACGAUCAGAUAUAGUAAACUGUCUUGAACCCCACCCUUACCUACCUGUGUUGGCGACCAGUGGCCUAGAUCAGCAUGUCAGGAUCUGGACACCCACAGCUAAAACUGCCACUGAGCUUACUGGGUUCAACAGAGGAUUGAGCAUCA
B7: chrX:155122998:155123099:+|3pUTR|ENSG00000185515|unk|FALSE|unique (ssRNA)
RNA: GGGAGUUCUACAGUCCGACGAUCCUACAUACACACAAAUGAAUGCAUGUAAAAUCUGGUGAUACUGAAUAAAGUCUGUGGUCUAGAUAGCAGUAUAAUAUUAUUGUCAAUGUCUUGGAUGUGAAGUUGUGCUAUAGUUACAAACAACAGAGGAUUGAGCAUCA
B8: chr22:46255662:46256560:-|three_prime_utr|ENSG00000130943|control|control|control (ssRNA)
RNA: GGGAGUUCUACAGUCCGACGAUCGUUUCAUGAGUCACAAGCAAGCGUUCCCCCAACUGCUGAGUCUGUGGGAUUAAGGGGAUUAGGGAGUGUCAGUGGCCUAGUCAUGCUUUCUACUCAUGUCCUUCACAAGGCACAUCCCCUCAACAGAGGAUUGAGCAUCA
B9: chr17:35854954:35855410:-|three_prime_utr|ENSG00000270379|control|control|control (ssRNA)
RNA: GGGAGUUCUACAGUCCGACGAUCUCAAGACUUUCGACUUGCAAAGCUGAACCCCUUGUUUAUUGCAAAGUCCAUCACCAAAGUAGGCCAAAAGAAAACGCCUGCUUUCCCACCGUGCUGCUCGAAACCACGAAAACAUAGGCCCAACAGAGGAUUGAGCAUCA
B10: chr4:159352722:159352837:+|CDS|ENSG00000109756|unk|FALSE|unique (ssRNA)
RNA: GGGAGUUCUACAGUCCGACGAUCACUGUGGAUAAUUUUUCAGAUUCUGGUCACAGUGAAAUUUCUUCACGAUCCAGUAUUGUUAGCAAUUCGUCUUUUGACUCAGUGCCAGUCUCACUGCACGAUGAGAGGCGCCAGAGGCAUCAACAGAGGAUUGAGCAUCA
B11: chr1:24840999:24841100:+|3pUTR|ENSG00000169504|msi1|FALSE|bound_elsewhere (ssRNA)
RNA: GGGAGUUCUACAGUCCGACGAUCGCUACUCCUUCCUGUAGAGCAGAAAUUGUAUUUUGCACGAACAUGCAGUUAUUGAAGAUUAGGAUCAAGGAUAGACAAGGUAUAGUAGUUAUCUUAAAAUAUACACUCCUAAGCAGUAUUCAACAGAGGAUUGAGCAUCA
B12: chr4:57031156:57031257:-|3pUTR|ENSG00000163453|msi1|FALSE|unique (ssRNA)
RNA: GGGAGUUCUACAGUCCGACGAUCAUAACUACAUUACCUGUUCUUGCCUAAUAAGUUUCUUUUAAUCCAAUCCACUAACACUUUAGUUAUAUUCACUGGUUUUACACAGAGAAAUACAAAAUAAAGAUCACACAUCAAGACUAUCAACAGAGGAUUGAGCAUCA
B13: chr14:106373662:106373964:-|CDS|ENSG00000211956|control|control|control (ssRNA)
RNA: GGGAGUUCUACAGUCCGACGAUCCAAUCAUAGUGGAAGCACCAACUACAACCCGUCCCUCAAGAGUCGAGUCACCAUAUCAGUAGACACGUCCAAGAACCAGUUCUCCCUGAAGCUGAGCUCUGUGACCGCCGCGGACACGGCCAACAGAGGAUUGAGCAUCA
B14: chr11:35230299:35231094:+|3pUTR|ENSG00000026508|msi1|FALSE|unique (ssRNA)
RNA: GGGAGUUCUACAGUCCGACGAUCGCCUGGGGAGUCCCUCAAAAGGUUAAAGGGAUUCCCAUCAUUGGAAUCUUAUCACCAGAUAGGCAAGUUUAUGACCAAACAAGAGAGUACUGGCUUUAUCCUCUAACCUCAUAUUUUCUCCAACAGAGGAUUGAGCAUCA

Target: T1, UNK ZnF1-6 (called full-length)
Test: nsRBNS (natural sequence RNA bind-n-seq); RBNS binding buffer (assumed for nsRBNS): 25 mM Tris pH 7.5, 150 mM KCl, 3 mM MgCl2, 0.01% Triton X-100, 500 ug/ml BSA, 20 U/ml SUPERase-In, 4 C; UNK is unkempt and MSI1 is Musashi-1; names of the RNAs are library labels; protein concentration not given here; high values mean tight binding

Row | Binder | binding signal [enrichment R]
1 | B1 | 0.545
2 | B2 | 0.841
3 | B3 | 0.538
4 | B4 | 0.493
5 | B5 | 0.77
6 | B6 | 0.883
7 | B7 | 0.959
8 | B8 | 0.66
9 | B9 | 0.554
10 | B10 | 0.47
11 | B11 | 0.841
12 | B12 | 1.55
13 | B13 | 0.824
14 | B14 | 0.54
